Laboratory results published in the supplement of paper PMC12645437, “Orthogonal IMiD-Degron Pairs Induce Selective Protein Degradation in Cells” (ACS Chemical Biology, 2025).
The list shows a part of the results.

Target: no compound (DMSO)
Experiment: log2 fold change of degron read counts, EGFP-low vs EGFP+ sorted cells; higher = lower degron-EGFP level without compound (poor expression or instability)
Settings: compound: DMSO control; 18 h
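Also: jurkat cells carrying a lentiviral library of mutant zinc finger degrons fused to EGFP plus mCherry, mCherry+ cells FACS sorted, degron abundance counted by next-generation sequencing.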

Row | Sequence | log2 fold change of degron read counts
1 | FLCNQCGASFTQKGNLLRHIKL | -1.09
2 | LCCNQCGFQCTQKGNLLRHIKL | -0.259
3 | FDCNQCGHMFTQKGNLLRHIKL | 0.661
4 | FMCNQCGAMFTQKGNLLRHIKL | -0.182
5 | LHCPICGFTCTQKGNLLRHIKL | 0.474
6 | FECNQCGHKFTQKGNLLRHIKL | -3.29
7 | LCCEICGFVCTQKGNLLRHIKL | -0.105
8 | FLCNQCGRNFTQKGNLLRHIKL | -0.135
9 | FECPICGHRFTQKGNLLRHIKL | -0.729
10 | FHCNICGAHFTQKGNLLRHIKL | -0.298
11 | FICPICGRLFTQKGNLLRHIKL | 0.601
12 | FACEICGHYFTQKGNLLRHIKL | -1.33
13 | FRCPICGHEFTQKGNLLRHIKL | -0.226
14 | FNCEVCGAHFTQKGNLLRHIKL | -1.13
15 | FECNICGAIFTQKGNLLRHIKL | -1.66
16 | FQCDQCGALFTQKGNLLRHIKL | -1.66

Row | Sequence | log2 fold change of degron read counts
17 | FCCEICGAWFTQKGNLLRHIKL | -0.686
18 | FNCEICGHCFTQKGNLLRHIKL | -0.88
19 | FHCNQCGHEFTQKGNLLRHIKL | -1.25
20 | FACNVCGAQFTQKGNLLRHIKL | -1.52
21 | FDCNQCGRGFTQKGNLLRHIKL | 0.621
22 | FMCPICGAIFTQKGNLLRHIKL | 0.653
23 | FMCNQCGHQFTQKGNLLRHIKL | -0.324
24 | LNCNQCGFWCTQKGNLLRHIKL | 2.12
25 | FDCPICGATFTQKGNLLRHIKL | -0.991
26 | FACNQCGREFTQKGNLLRHIKL | -1.97
27 | FRCNICGANFTQKGNLLRHIKL | 0.131
28 | FFCEICGALFTQKGNLLRHIKL | 0.354
29 | FCCEICGAKFTQKGNLLRHIKL | -1.93
30 | FFCNVCGATFTQKGNLLRHIKL | -0.209
31 | LLCPICGFACTQKGNLLRHIKL | 1.02
32 | FRCPQCGAGFTQKGNLLRHIKL | -0.578
